# In the supplement of paper PMC6206098:
# ± gives the uncertainty stated by the source. Shown are siRNA guide strands that differ only in the seed, positions 2 to 7.
# Tests used:
# H460 = experiment: cell viability relative to lipid-only control; higher = less toxic; settings: concentration: 10 nM; 96 h; Homo sapiens
# Protocol: (§1)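 Arrayed screen of 4096 siRNA duplexes, each carrying one of all possible 6mer seeds at guide-strand positions 2-7 in a fixed neutral 19mer scaffold (constant flanks: U at position 1, then ACAUGUAAACCA, plus a 3' AA overhang). The passenger strand is 2'-O-methylated at positions 1-2 so only the guide strand loads into RISC. Duplexes were reverse-transfected at 10 nM with RNAiMAX in triplicate in 384-well plates; viability was read by CellTiter-Glo ATP content 96 h after transfection. Values are % viability normalised to lipid-only wells (HeyA8, H460, M565) or to siNT1 (3LL).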
# HeyA8 = experiment: as above; settings: concentration: 10 nM; 96 h; Homo sapiens
# Protocol: as §1
# M565 = experiment: as above; settings: concentration: 10 nM; 96 h; Mus musculus
# Protocol: as §1
# 3LL = experiment: cell viability relative to siNT1 control; HeyA8 human ovarian and H460 human lung cancer; M565 mouse liver and 3LL mouse lung cancer; siNT1 is a non-toxic control siRNA; higher = less toxic; settings: concentration: 10 nM; 96 h; Mus musculus
# 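Wherever cell viability relative to lipid-only control is given: reverse lipid transfection in 384-well plates, in triplicate, of duplexes on a non-toxic 19mer backbone with passenger strand 2′-O-methylated at positions 1 and 2, luminescence viability read-out.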
# 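Wherever cell viability relative to siNT1 control is given: Luminescence-based viability of cells reverse transfected in 384-well plates with lipid-complexed siRNAs built on a non-toxic 19mer backbone whose passenger strand carries 2′-O-methyl groups at positions 1 and 2, triplicates.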
Sequence,cell viability (H460),cell viability (HeyA8),cell viability (M565),cell viability (3LL)
UUAUGCCACAUGUAAACCAAA,13.7 ± 1.2%,9.05 ± 0.98%,10.4 ± 2.9%,12 ± 4.1%
UCUUUCCACAUGUAAACCAAA,42.8 ± 4.3%,22.5 ± 2.7%,93.6 ± 24%,92 ± 9.7%
UUUCAAAACAUGUAAACCAAA,53.2 ± 4.4%,99.6 ± 3.4%,84.1 ± 6.5%,94.2 ± 9.1%
UUGAGCCACAUGUAAACCAAA,54.6 ± 6.9%,71.9 ± 2%,23.7 ± 6%,16.6 ± 3.3%
UGCAAACACAUGUAAACCAAA,56.6 ± 4.5%,63.3 ± 4.7%,91.4 ± 7.3%,65.7 ± 11%
UGUCAUCACAUGUAAACCAAA,31.9 ± 2.7%,6.3 ± 1%,6.93 ± 2.8%,22.4 ± 5.2%
UCUAUUUACAUGUAAACCAAA,74.6 ± 13%,87.3 ± 5.8%,70.1 ± 16%,96.9 ± 15%
UGUUUUCACAUGUAAACCAAA,81.1 ± 9.4%,17.1 ± 1.9%,84.7 ± 7.3%,82.1 ± 5.7%
UGAGGCAACAUGUAAACCAAA,58.2 ± 5.4%,36.3 ± 1.3%,4.98 ± 1.1%,7.47 ± 0.38%
UCCACUUACAUGUAAACCAAA,61.5 ± 3.8%,75.1 ± 9.2%,62 ± 23%,104 ± 28%
UACCGAGACAUGUAAACCAAA,90.4 ± 22%,102 ± 12%,81.1 ± 15%,96.5 ± 11%
UGUUGAGACAUGUAAACCAAA,79.1 ± 12%,46.7 ± 5.8%,23.2 ± 4.8%,48.2 ± 18%
UCGCCCGACAUGUAAACCAAA,70.8 ± 15%,86.8 ± 0.96%,54 ± 8.4%,83.6 ± 12%
UCUAGAUACAUGUAAACCAAA,54.3 ± 2.4%,83.7 ± 11%,72.1 ± 12%,89.2 ± 14%
UCGACAUACAUGUAAACCAAA,56.1 ± 8.3%,84.9 ± 4.5%,61.4 ± 4.9%,85.6 ± 20%
UAGCAUGACAUGUAAACCAAA,70.3 ± 14%,81.9 ± 1.9%,21.8 ± 0.95%,54.9 ± 5.3%
UGAUGCAACAUGUAAACCAAA,35.8 ± 2.3%,36 ± 1%,32.3 ± 6.4%,37.9 ± 7.2%
UUAAGUGACAUGUAAACCAAA,61.2 ± 8.6%,55.8 ± 3.6%,91.1 ± 17%,85.6 ± 5.7%
UGUGUUCACAUGUAAACCAAA,51.6 ± 3.7%,7.29 ± 0.15%,49.9 ± 6.7%,58.3 ± 12%

Sequence,cell viability (H460),cell viability (HeyA8),cell viability (M565),cell viability (3LL)
UAGGCAUACAUGUAAACCAAA,54.3 ± 4.9%,18.6 ± 2.9%,4.6 ± 0.94%,23 ± 8%
UCCGCCAACAUGUAAACCAAA,66.4 ± 10%,75 ± 8.2%,48.4 ± 15%,103 ± 11%
UCCUCUAACAUGUAAACCAAA,66.1 ± 2.6%,91.3 ± 2.8%,67.9 ± 8.5%,91.4 ± 20%
UGUUACAACAUGUAAACCAAA,56.7 ± 3.1%,44 ± 7.3%,58.9 ± 11%,89.6 ± 4.4%
UCACUGAACAUGUAAACCAAA,42 ± 6.2%,85.2 ± 12%,62.6 ± 16%,86.9 ± 12%
UAUCGGAACAUGUAAACCAAA,87.7 ± 14%,82.3 ± 4.1%,59.5 ± 20%,75.3 ± 6.2%
UCCGGCGACAUGUAAACCAAA,51.5 ± 4.5%,51.4 ± 6.4%,59 ± 12%,102 ± 26%
UUUACUUACAUGUAAACCAAA,90.7 ± 13%,97.4 ± 5%,73.5 ± 8.2%,90.8 ± 4.6%
UCGCUACACAUGUAAACCAAA,64.4 ± 7.6%,64.1 ± 2.7%,59.3 ± 3.8%,85 ± 20%
UACUUCAACAUGUAAACCAAA,78.8 ± 5.9%,74.8 ± 7.7%,90 ± 4%,100 ± 9.7%
UGAAGGUACAUGUAAACCAAA,56.1 ± 7.8%,26.4 ± 2.5%,12 ± 1.7%,2.29 ± 0.57%
UCCUACAACAUGUAAACCAAA,73.9 ± 12%,89.4 ± 6.8%,75.1 ± 6.3%,86.3 ± 18%
UAGAGGUACAUGUAAACCAAA,53.3 ± 6.8%,37.3 ± 2.3%,6.78 ± 0.93%,21 ± 3.3%
UUUCGCCACAUGUAAACCAAA,56.9 ± 4.4%,88.1 ± 1.4%,101 ± 14%,89.2 ± 14%
UUGAUGGACAUGUAAACCAAA,65.4 ± 13%,65.5 ± 2.9%,31.2 ± 6.5%,23.2 ± 0.94%
UUCGGUGACAUGUAAACCAAA,67 ± 6.3%,90.3 ± 12%,70.7 ± 4.8%,86.2 ± 15%
UCGGAGCACAUGUAAACCAAA,18.9 ± 1.1%,15.9 ± 2.3%,9.4 ± 3.1%,14.5 ± 5.1%
UCGUAAUACAUGUAAACCAAA,79.9 ± 14%,80.7 ± 3.3%,82.6 ± 6.5%,90.7 ± 16%
UACUACUACAUGUAAACCAAA,66.5 ± 6.4%,43.7 ± 7.8%,49.8 ± 16%,60.1 ± 9.1%

Sequence,cell viability (H460),cell viability (HeyA8),cell viability (M565),cell viability (3LL)
UGGUGACACAUGUAAACCAAA,11.6 ± 0.96%,7.79 ± 0.74%,12.9 ± 3.5%,19.7 ± 3.5%
UGUGAGCACAUGUAAACCAAA,21.7 ± 1.5%,30.1 ± 3.5%,6.01 ± 3.6%,33 ± 10%
UGAGUUGACAUGUAAACCAAA,63.3 ± 1.7%,45.8 ± 4.3%,22.5 ± 8.7%,94.1 ± 16%
UUGAAUUACAUGUAAACCAAA,78.2 ± 8.4%,83.8 ± 5.4%,78.3 ± 8.9%,45.7 ± 3.5%
UCGCGGGACAUGUAAACCAAA,38 ± 2%,26.2 ± 4.2%,29 ± 3%,60.1 ± 19%
UUUGCUCACAUGUAAACCAAA,96.3 ± 16%,74.4 ± 5.5%,53.9 ± 5.2%,88.4 ± 4.3%
UCGCAAAACAUGUAAACCAAA,70.3 ± 5.7%,84.7 ± 2.4%,72.9 ± 8.7%,93.8 ± 13%
UUUACGUACAUGUAAACCAAA,91.8 ± 13%,92.5 ± 4.1%,57.2 ± 10%,94.4 ± 6.6%
UUGAUAUACAUGUAAACCAAA,77.9 ± 8.2%,74.8 ± 2.5%,109 ± 33%,84.2 ± 13%
UCUAAACACAUGUAAACCAAA,48.8 ± 6.7%,81.5 ± 11%,67.1 ± 9.4%,90.6 ± 17%
UUUUAUCACAUGUAAACCAAA,67.4 ± 4.9%,87.3 ± 6.3%,67.2 ± 1.9%,89.2 ± 9.5%
UUUGUGGACAUGUAAACCAAA,64.7 ± 15%,63.6 ± 5.1%,39.3 ± 4.5%,57.6 ± 5.8%
UCAGAAAACAUGUAAACCAAA,54.2 ± 3.2%,79.7 ± 8.8%,66 ± 10%,90.4 ± 12%
UCCAUGUACAUGUAAACCAAA,58.4 ± 1.2%,35.3 ± 5.7%,19 ± 2.7%,42.6 ± 7.5%
UGCAAUAACAUGUAAACCAAA,72.4 ± 6.1%,74.2 ± 23%,98.9 ± 11%,82.7 ± 17%
UAACGGAACAUGUAAACCAAA,97 ± 17%,87 ± 4%,90.8 ± 18%,89.2 ± 4.7%
UAUCUUAACAUGUAAACCAAA,80.1 ± 13%,106 ± 5.2%,104 ± 19%,122 ± 18%
UUCCCCCACAUGUAAACCAAA,43.5 ± 2.7%,38.5 ± 2%,32.6 ± 5.1%,30.4 ± 5.3%
UAGAACUACAUGUAAACCAAA,64.6 ± 16%,25.1 ± 2.5%,79.6 ± 12%,66.6 ± 8%
